Some of the results follow. Binding of human transcription factors and regulators to the viral nucleoprotein by AlphaScreen, crude cell-free proteins, amounts not normalised, one pass. Fold of the Venus control; higher = more signal. No active / inactive call. Single-pass screen; sequences are the whole Swiss-Prot entries looked up by name.
B1: SIX2, Q9NPC8 (protein)
chain: MSMLPTFGFTQEQVACVCEVLQQGGNIERLGRFLWSLPACEHLHKNESVLKAKAVVAFHRGNFRELYKILESHQFSPHNHAKLQQLWLKAHYIEAEKLRGRPLGAVGKYRVRRKFPLPRSIWDGEETSYCFKEKSRSVLREWYAHNPYPSPREKRELAEATGLTTTQVSNWFKNRRQRDRAAEAKERENNENSNSNSHNPLNGSGKSVLGSSEDEKTPSGTPDHSSSSPALLLSPPPPGLPSLHSLGHPPGPSAVPVPVPGGGGADPLQHHHGLQDSILNPMSANLVDLGS
B2: ZNF493, Q6ZR52 (protein)
chain: MNECNVHKEGYNELNQYLTTTQSKIFQCDKYVKVFHKLLNSNRHNTKHTGKKPFKCKKCGKSFCMLLHLCQHKRIHIRENSYRCEECGKAFIWFSTLTRHRRVHTGEKSYKYECGKSFNQDSNLTTHKRIHTGQKPYKCEECGTSFYQFSYLTRHKLIHTREKPYKCEQYGKTFNQSSTLTGHKIIHNGEKPYKCEECGKAFSIFSTPTKHKIIHTEEKSHRCEEYCKAYKESSHLTTHKRIHTGEKPYKCEECGKAFSIFSTLTKHKIIHTEEKSHRCEECGKAYKESSHLTTHKRIHTGEKPYKCEECGKTFSVFSILTKHKIIHTEEKPYKCEECGKAFKRSSTLTKHRIIHTEEKPYKCEECGKAFNQSSTLSIHKIIHTGEKPYKCEECGKAFKRSSTLTIHKMIHTGEKPYKCEECGKAFNRSSHLTTHKRIHTGHKPYKCKECGKSFSVFSTLTKHKIIHTDKKPYKCEECGKAFNRSSILSIHKKIHTGEKPYKCEECGKAFKRSSHLAGHKQIHSVQKPYKCEECGKAFSIFSTLTKHKIIHTEEKPYKCEKCGKTFYRFSNLNTHKIIHTGEKPCKCEECGKAFNHSSNLIKHKLIHTGDKPYKCEACGKAFRRSSHLSRHKIIHIGIHTEETVQK
B3: SIM1, P81133 (protein)
chain: MKEKSKNAARTRREKENSEFYELAKLLPLPSAITSQLDKASIIRLTTSYLKMRVVFPEGLGEAWGHSSRTSPLDNVGRELGSHLLQTLDGFIFVVAPDGKIMYISETASVHLGLSQVELTGNSIYEYIHPADHDEMTAVLTAHQPYHSHFVQEYEIERSFFLRMKCVLAKRNAGLTCGGYKVIHCSGYLKIRQYSLDMSPFDGCYQNVGLVAVGHSLPPSAVTEIKLHSNMFMFRASLDMKLIFLDSRVAELTGYEPQDLIEKTLYHHVHGCDTFHLRCAHHLLLVKGQVTTKYYRFLAKHGGWVWVQSYATIVHNSRSSRPHCIVSVNYVLTDTEYKGLQLSLDQISASKPAFSYTSSSTPTMTDNRKGAKSRLSSSKSKSRTSPYPQYSGFHTERSESDHDSQWGGSPLTDTASPQLLDPADRPGSQHDASCAYRQFSDRSSLCYGFALDHSRLVEERHFHTQACEGGRCEAGRYFLGTPQAGREPWWGSRAALPLTKASPESREAYENSMPHIASVHRIHGRGHWDEDSVVSSPDPGSASESGDRYRTEQYQSSPHEPSKIETLIRATQQMIKEEENRLQLRKAPSDQLASINGAGKKHSLCFANYQQPPPTGEVCHGSALANTSPCDHIQQREGKMLSPHENDYDNSPTALSRISSPNSDRISKSSLILAKDYLHSDISPHQTAGDHPTVSPNCFGSHRQYFDKHAYTLTGYALEHLYDSETIRNYSLGCNGSHFDVTSHLRMQPDPAQGHKGTSVIITNGS
B4: MKL1, Q969V6 (protein)
chain: MPPLKSPAAFHEQRRSLERARTEDYLKRKIRSRPERSELVRMHILEETSAEPSLQAKQLKLKRARLADDLNEKIAQRPGPMELVEKNILPVESSLKEAIIVGQVNYPKVADSSSFDEDSSDALSPEQPASHESQGSVPSPLEARVSEPLLSATSASPTQVVSQLPMGRDSREMLFLAEQPPLPPPPLLPPSLTNGTTIPTAKSTPTLIKQSQPKSASEKSQRSKKAKELKPKVKKLKYHQYIPPDQKQDRGAPPMDSSYAKILQQQQLFLQLQILNQQQQQHHNYQAILPAPPKSAGEALGSSGTPPVRSLSTTNSSSSSGAPGPCGLARQNSTSLTGKPGALPANLDDMKVAELKQELKLRSLPVSGTKTELIERLRAYQDQISPVPGAPKAPAATSILHKAGEVVVAFPAARLSTGPALVAAGLAPAEVVVATVASSGVVKFGSTGSTPPVSPTPSERSLLSTGDENSTPGDTFGEMVTSPLTQLTLQASPLQILVKEEGPRAGSCCLSPGGRAELEGRDKDQMLQEKDKQIEALTRMLRQKQQLVERLKLQLEQEKRAQQPAPAPAPLGTPVKQENSFSSCQLSQQPLGPAHPFNPSLAAPATNHIDPCAVAPGPPSVVVKQEALQPEPEPVPAPQLLLGPQGPSLIKGVAPPTLITDSTGTHLVLTVTNKNADSPGLSSGSPQQPSSQPGSPAPAPSAQMDLEHPLQPLFGTPTSLLKKEPPGYEEAMSQQPKQQENGSSSQQMDDLFDILIQSGEISADFKEPPSLPGKEKPSPKTVCGSPLAAQPSPSAELPQAAPPPPGSPSLPGRLEDFLESSTGLPLLTSGHDGPEPLSLIDDLHSQMLSSTAILDHPPSPMDTSELHFVPEPSSTMGLDLADGHLDSMDWLELSSGGPVLSLAPLSTTAPSLFSTDFLDGHDLQLHWDSCL
B5: FOXD3, Q9UJU5 (protein)
chain: MTLSGGGSASDMSGQTVLTAEDVDIDVVGEGDDGLEEKDSDAGCDSPAGPPELRLDEADEVPPAAPHHGQPQPPHQQPLTLPKEAAGAGAGPGGDVGAPEADGCKGGVGGEEGGASGGGPGAGSGSAGGLAPSKPKNSLVKPPYSYIALITMAILQSPQKKLTLSGICEFISNRFPYYREKFPAWQNSIRHNLSLNDCFVKIPREPGNPGKGNYWTLDPQSEDMFDNGSFLRRRKRFKRHQQEHLREQTALMMQSFGAYSLAAAAGAAGPYGRPYGLHPAAAAGAYSHPAAAAAAAAAAALQYPYALPPVAPVLPPAVPLLPSGELGRKAAAFGSQLGPGLQLQLNSLGAAAAAAGTAGAAGTTASLIKSEPSARPSFSIENIIGGGPAAPGGSAVGAGVAGGTGGSGGGSTAQSFLRPPGTVQSAALMATHQPLSLSRTTATIAPILSVPLSGQFLQPAASAAAAAAAAAQAKWPAQ
B6: SIM2, Q14190 (protein)
chain: MKEKSKNAAKTRREKENGEFYELAKLLPLPSAITSQLDKASIIRLTTSYLKMRAVFPEGLGDAWGQPSRAGPLDGVAKELGSHLLQTLDGFVFVVASDGKIMYISETASVHLGLSQVELTGNSIYEYIHPSDHDEMTAVLTAHQPLHHHLLQEYEIERSFFLRMKCVLAKRNAGLTCSGYKVIHCSGYLKIRQYMLDMSLYDSCYQIVGLVAVGQSLPPSAITEIKLYSNMFMFRASLDLKLIFLDSRVTEVTGYEPQDLIEKTLYHHVHGCDVFHLRYAHHLLLVKGQVTTKYYRLLSKRGGWVWVQSYATVVHNSRSSRPHCIVSVNYVLTEIEYKELQLSLEQVSTAKSQDSWRTALSTSQETRKLVKPKNTKMKTKLRTNPYPPQQYSSFQMDKLECGQLGNWRASPPASAAAPPELQPHSESSDLLYTPSYSLPFSYHYGHFPLDSHVFSSKKPMLPAKFGQPQGSPCEVARFFLSTLPASGECQWHYANPLVPSSSSPAKNPPEPPANTARHSLVPSYEAPAAAVRRFGEDTAPPSFPSCGHYREEPALGPAKAARQAARDGARLALARAAPECCAPPTPEAPGAPAQLPFVLLNYHRVLARRGPLGGAAPAASGLACAPGGPEAATGALRLRHPSPAATSPPGAPLPHYLGASVIITNGR
B7: FOXD4L6, Q3SYB3 (protein)
chain: MNLPRAERLRSTPQRSLRDSDGEDGKIDVLGEEEDEDEVEDEEEAASQQFLEQSLQPGLQVARWGGVALPREHIEGGGGPSDPSEFGTKFRAPPRSAAASEDARQPAKPPYSYIALITMAILQNPHKRLTLSGICAFISGRFPYYRRKFPAWQNSIRHNLSLNDCFVKIPREPGHPGKGNYWSLDPASQDMFDNGSFLRRRKRFKRHQLTPGAHLPHPFPLPAAHAALHNPHPGPLLGAPAPPQPVPGAYPNTAPGRRPYALLHPHPLRYLLLSAPVYAGAPKKAEGAALATPAPFPCCSPHLVLSLGRRARVWRRHREADASLSALRVLCKGSGERVQGLRRVCPRPRGATATCSSDHQACCIPRPLPLCCKCPPPPLLGQFCSNSSSIRRRTAPTAALPPRARCWAGTCRPRRPC
B8: NEUROG1, Q92886 (protein)
chain: MPARLETCISDLDCASSSGSDLSGFLTDEEDCARLQQAASASGPPAPARRGAPNISRASEVPGAQDDEQERRRRRGRTRVRSEALLHSLRRSRRVKANDRERNRMHNLNAALDALRSVLPSFPDDTKLTKIETLRFAYNYIWALAETLRLADQGLPGGGARERLLPPQCVPCLPGPPSPASDAESWGSGAAAASPLSDPSSPAASEDFTYRPGDPVFSFPSLPKDLLHTTPCFIPYH
B9: ELF5, Q9UKW6 (protein)
chain: MPSLPHSHRVMLDSVTHSTFLPNASFCDPLMSWTDLFSNEEYYPAFEHQTACDSYWTSVHPEYWTKRHVWEWLQFCCDQYKLDTNCISFCNFNISGLQLCSMTQEEFVEAAGLCGEYLYFILQNIRTQGYSFFNDAEESKATIKDYADSNCLKTSGIKSQDCHSHSRTSLQSSHLWEFVRDLLLSPEENCGILEWEDREQGIFRVVKSEALAKMWGQRKKNDRMTYEKLSRALRYYYKTGILERVDRRLVYKFGKNAHGWQEDKL

Target: nucleoprotein N of Crimean-Congo hemorrhagic fever virus
Assay: AlphaScreen luminescence signal relative to Venus negative control (fold); higher = stronger binding to CCHFV N
Method: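 AlphaScreen binding of cell-free made, FLAG-GST-tagged human transcription factors and regulators (crude translation products) to biotinylated N protein; signal as fold of the FLAG-GST-Venus control. One pass.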

Row | Binder | AlphaScreen luminescence signal
1 | B1 | 2.42
2 | B2 | 6.05
3 | B3 | 2.7
4 | B4 | 2.37
5 | B5 | 1.02
6 | B6 | 2.65
7 | B7 | 1.81
8 | B8 | 5.4
9 | B9 | 3.72
